Reference: PMC12820563
This is one part of the list. The list includes weakly bound sequences.

What follows are sequences tested against T1, MBP-FoxP3dN (UniProt Q99JB6) (assay: PD-seq (MBP pull-down with sequencing)). Conditions: 20 mM Tris-HCl pH 7.5, 100 mM NaCl, 1.5 mM MgCl2, 0.4 uM protein, 0.1 uM dsDNA library, 30 min, room temperature, amylose pull-down; high values mean tight binding; double strand, one strand shown.
T1 sequence: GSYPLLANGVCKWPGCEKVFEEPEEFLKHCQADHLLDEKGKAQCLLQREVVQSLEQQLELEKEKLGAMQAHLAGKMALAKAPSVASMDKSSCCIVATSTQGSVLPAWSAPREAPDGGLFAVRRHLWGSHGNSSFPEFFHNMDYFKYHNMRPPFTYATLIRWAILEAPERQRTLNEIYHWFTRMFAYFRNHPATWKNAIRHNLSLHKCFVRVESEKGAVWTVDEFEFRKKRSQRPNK

With “GATGATTGTTCTCCCAGCTGATGAATTGAAGTGATCGAGTAAACAAATTTTCCTAATCTTTCTGTTCAAGCGCCATCTAC” as the sequence, how does the binding signal (RPM ratio (pull-down/input)) read?
The binding signal (RPM ratio (pull-down/input)) was 0.434.

For “GATGATTGTTCTCCCAGCTGATGAATTGGCAATATCGAGTAAACAAATTTTCCTAATCTTTCTGTTCAAGCGCCATCTAC”, which binding signal (RPM ratio (pull-down/input)) is on record?
Its binding signal (RPM ratio (pull-down/input)) is 1.15.

For “GATGATTGTTCTCCCAGCTGATGAATTTTCCGTGTCGAGTAAACAAATTTTCCTAATCTTTCTGTTCAAGCGCCATCTAC”, which binding signal (RPM ratio (pull-down/input)) is on record?
The binding signal (RPM ratio (pull-down/input)) was 0.303.

With “GATGATTGTTCTCCCAGCTGATGAATTTGCAGCGTCGAGTAAACAAATTTTCCTAATCTTTCTGTTCAAGCGCCATCTAC” as the sequence, how does the binding signal (RPM ratio (pull-down/input)) read?
Its binding signal (RPM ratio (pull-down/input)) is 1.04.

How did the binding signal (RPM ratio (pull-down/input)) turn out when “GATGATTGTTCTCCCAGCTGATGAATTGCGTGCTTCGAGTAAACAAATTTTCCTAATCTTTCTGTTCAAGCGCCATCTAC” was run?
Its binding signal (RPM ratio (pull-down/input)) is 1.56.

With “GATGATTGTTCTCCCAGCTGATGAATTATCGCTATCGAGTAAACAAATTTTCCTAATCTTTCTGTTCAAGCGCCATCTAC” as the sequence, how does the binding signal (RPM ratio (pull-down/input)) read?
The binding signal (RPM ratio (pull-down/input)) was 0.715.

With “GATGATTGTTCTCCCAGCTGATGAATTCCGCGGCTCGAGTAAACAAATTTTCCTAATCTTTCTGTTCAAGCGCCATCTAC” as the sequence, how does the binding signal (RPM ratio (pull-down/input)) read?
Its binding signal (RPM ratio (pull-down/input)) is 0.689.

For “GATGATTGTTCTCCCAGCTGATGAATTTGATCGATCGAGTAAACAAATTTTCCTAATCTTTCTGTTCAAGCGCCATCTAC”, which binding signal (RPM ratio (pull-down/input)) is on record?
The binding signal (RPM ratio (pull-down/input)) was 0.247.

With “GATGATTGTTCTCCCAGCTGATGAATTACTTTAATCGAGTAAACAAATTTTCCTAATCTTTCTGTTCAAGCGCCATCTAC” as the sequence, how does the binding signal (RPM ratio (pull-down/input)) read?
Its binding signal (RPM ratio (pull-down/input)) is 0.273.

“GATGATTGTTCTCCCAGCTGATGAATTCATGGCGTCGAGTAAACAAATTTTCCTAATCTTTCTGTTCAAGCGCCATCTAC” was tested. Which binding signal (RPM ratio (pull-down/input)) did it give?
Its binding signal (RPM ratio (pull-down/input)) is 0.668.

With “GATGATTGTTCTCCCAGCTGATGAATTATGCGTTTCGAGTAAACAAATTTTCCTAATCTTTCTGTTCAAGCGCCATCTAC” as the sequence, how does the binding signal (RPM ratio (pull-down/input)) read?
Its binding signal (RPM ratio (pull-down/input)) is 4.66.

With “GATGATTGTTCTCCCAGCTGATGAATTCGCTCCCTCGAGTAAACAAATTTTCCTAATCTTTCTGTTCAAGCGCCATCTAC” as the sequence, how does the binding signal (RPM ratio (pull-down/input)) read?
Its binding signal (RPM ratio (pull-down/input)) is 0.309.

With “GATGATTGTTCTCCCAGCTGATGAATTCACATGGTCGAGTAAACAAATTTTCCTAATCTTTCTGTTCAAGCGCCATCTAC” as the sequence, how does the binding signal (RPM ratio (pull-down/input)) read?
Its binding signal (RPM ratio (pull-down/input)) is 0.35.

How did the binding signal (RPM ratio (pull-down/input)) turn out when “GATGATTGTTCTCCCAGCTGATGAATTGTATCTTTCGAGTAAACAAATTTTCCTAATCTTTCTGTTCAAGCGCCATCTAC” was run?
The binding signal (RPM ratio (pull-down/input)) was 1.68.

Which binding signal (RPM ratio (pull-down/input)) does the source give for “GATGATTGTTCTCCCAGCTGATGAATTCTAAAATTCGAGTAAACAAATTTTCCTAATCTTTCTGTTCAAGCGCCATCTAC” here?
The binding signal (RPM ratio (pull-down/input)) was 0.271.

“GATGATTGTTCTCCCAGCTGATGAATTCACGTGTTCGAGTAAACAAATTTTCCTAATCTTTCTGTTCAAGCGCCATCTAC” was tested. Which binding signal (RPM ratio (pull-down/input)) did it give?
Its binding signal (RPM ratio (pull-down/input)) is 0.58.

“GATGATTGTTCTCCCAGCTGATGAATTGCTAAGTTCGAGTAAACAAATTTTCCTAATCTTTCTGTTCAAGCGCCATCTAC” was tested. Which binding signal (RPM ratio (pull-down/input)) did it give?
The binding signal (RPM ratio (pull-down/input)) was 0.518.

For “GATGATTGTTCTCCCAGCTGATGAATTTCGGCCTTCGAGTAAACAAATTTTCCTAATCTTTCTGTTCAAGCGCCATCTAC”, which binding signal (RPM ratio (pull-down/input)) is on record?
The binding signal (RPM ratio (pull-down/input)) was 1.74.

Which binding signal (RPM ratio (pull-down/input)) does the source give for “GATGATTGTTCTCCCAGCTGATGAATTCGTCCTTTCGAGTAAACAAATTTTCCTAATCTTTCTGTTCAAGCGCCATCTAC” here?
The binding signal (RPM ratio (pull-down/input)) was 0.547.

How did the binding signal (RPM ratio (pull-down/input)) turn out when “GATGATTGTTCTCCCAGCTGATGAATTAAAGCAATCGAGTAAACAAATTTTCCTAATCTTTCTGTTCAAGCGCCATCTAC” was run?
The binding signal (RPM ratio (pull-down/input)) was 2.51.

How did the binding signal (RPM ratio (pull-down/input)) turn out when “GATGATTGTTCTCCCAGCTGATGAATTCAAGTCTTCGAGTAAACAAATTTTCCTAATCTTTCTGTTCAAGCGCCATCTAC” was run?
The binding signal (RPM ratio (pull-down/input)) was 0.346.

Which binding signal (RPM ratio (pull-down/input)) does the source give for “GATGATTGTTCTCCCAGCTGATGAATTCAAGAACTCGAGTAAACAAATTTTCCTAATCTTTCTGTTCAAGCGCCATCTAC” here?
The binding signal (RPM ratio (pull-down/input)) was 0.199.

With “GATGATTGTTCTCCCAGCTGATGAATTCGGCGGTTCGAGTAAACAAATTTTCCTAATCTTTCTGTTCAAGCGCCATCTAC” as the sequence, how does the binding signal (RPM ratio (pull-down/input)) read?
The binding signal (RPM ratio (pull-down/input)) was 0.542.

“GATGATTGTTCTCCCAGCTGATGAATTGCATCAGTCGAGTAAACAAATTTTCCTAATCTTTCTGTTCAAGCGCCATCTAC” was tested. Which binding signal (RPM ratio (pull-down/input)) did it give?
Its binding signal (RPM ratio (pull-down/input)) is 2.35.

“GATGATTGTTCTCCCAGCTGATGAATTTTATGGGTCGAGTAAACAAATTTTCCTAATCTTTCTGTTCAAGCGCCATCTAC” was tested. Which binding signal (RPM ratio (pull-down/input)) did it give?
The binding signal (RPM ratio (pull-down/input)) was 0.539.

For “GATGATTGTTCTCCCAGCTGATGAATTGTGGTTTTCGAGTAAACAAATTTTCCTAATCTTTCTGTTCAAGCGCCATCTAC”, which binding signal (RPM ratio (pull-down/input)) is on record?
The binding signal (RPM ratio (pull-down/input)) was 2.03.

For “GATGATTGTTCTCCCAGCTGATGAATTCAAGTGCTCGAGTAAACAAATTTTCCTAATCTTTCTGTTCAAGCGCCATCTAC”, which binding signal (RPM ratio (pull-down/input)) is on record?
Its binding signal (RPM ratio (pull-down/input)) is 0.454.

For “GATGATTGTTCTCCCAGCTGATGAATTGCGGCTATCGAGTAAACAAATTTTCCTAATCTTTCTGTTCAAGCGCCATCTAC”, which binding signal (RPM ratio (pull-down/input)) is on record?
Its binding signal (RPM ratio (pull-down/input)) is 1.2.

“GATGATTGTTCTCCCAGCTGATGAATTGGGACTGTCGAGTAAACAAATTTTCCTAATCTTTCTGTTCAAGCGCCATCTAC” was tested. Which binding signal (RPM ratio (pull-down/input)) did it give?
The binding signal (RPM ratio (pull-down/input)) was 0.673.

How did the binding signal (RPM ratio (pull-down/input)) turn out when “GATGATTGTTCTCCCAGCTGATGAATTCCGCGGGTCGAGTAAACAAATTTTCCTAATCTTTCTGTTCAAGCGCCATCTAC” was run?
The binding signal (RPM ratio (pull-down/input)) was 0.668.

With “GATGATTGTTCTCCCAGCTGATGAATTAATTTCCTCGAGTAAACAAATTTTCCTAATCTTTCTGTTCAAGCGCCATCTAC” as the sequence, how does the binding signal (RPM ratio (pull-down/input)) read?
The binding signal (RPM ratio (pull-down/input)) was 0.876.

With “GATGATTGTTCTCCCAGCTGATGAATTATACTGTTCGAGTAAACAAATTTTCCTAATCTTTCTGTTCAAGCGCCATCTAC” as the sequence, how does the binding signal (RPM ratio (pull-down/input)) read?
Its binding signal (RPM ratio (pull-down/input)) is 0.749.

“GATGATTGTTCTCCCAGCTGATGAATTAGGCTCTTCGAGTAAACAAATTTTCCTAATCTTTCTGTTCAAGCGCCATCTAC” was tested. Which binding signal (RPM ratio (pull-down/input)) did it give?
Its binding signal (RPM ratio (pull-down/input)) is 0.62.

For “GATGATTGTTCTCCCAGCTGATGAATTATTTCTTTCGAGTAAACAAATTTTCCTAATCTTTCTGTTCAAGCGCCATCTAC”, which binding signal (RPM ratio (pull-down/input)) is on record?
The binding signal (RPM ratio (pull-down/input)) was 0.419.

Which binding signal (RPM ratio (pull-down/input)) does the source give for “GATGATTGTTCTCCCAGCTGATGAATTCTACGCTTCGAGTAAACAAATTTTCCTAATCTTTCTGTTCAAGCGCCATCTAC” here?
The binding signal (RPM ratio (pull-down/input)) was 0.404.

“GATGATTGTTCTCCCAGCTGATGAATTTGGCTGGTCGAGTAAACAAATTTTCCTAATCTTTCTGTTCAAGCGCCATCTAC” was tested. Which binding signal (RPM ratio (pull-down/input)) did it give?
The binding signal (RPM ratio (pull-down/input)) was 0.672.

Which binding signal (RPM ratio (pull-down/input)) does the source give for “GATGATTGTTCTCCCAGCTGATGAATTCTCAGTGTCGAGTAAACAAATTTTCCTAATCTTTCTGTTCAAGCGCCATCTAC” here?
Its binding signal (RPM ratio (pull-down/input)) is 0.363.

For “GATGATTGTTCTCCCAGCTGATGAATTGCGCGCCTCGAGTAAACAAATTTTCCTAATCTTTCTGTTCAAGCGCCATCTAC”, which binding signal (RPM ratio (pull-down/input)) is on record?
The binding signal (RPM ratio (pull-down/input)) was 2.33.

Which binding signal (RPM ratio (pull-down/input)) does the source give for “GATGATTGTTCTCCCAGCTGATGAATTCTTTGTATCGAGTAAACAAATTTTCCTAATCTTTCTGTTCAAGCGCCATCTAC” here?
The binding signal (RPM ratio (pull-down/input)) was 0.57.

How did the binding signal (RPM ratio (pull-down/input)) turn out when “GATGATTGTTCTCCCAGCTGATGAATTGTCTCCATCGAGTAAACAAATTTTCCTAATCTTTCTGTTCAAGCGCCATCTAC” was run?
Its binding signal (RPM ratio (pull-down/input)) is 0.441.
